# PubChem BioAssay AID504832 (National Center for Advancing Translational Sciences (NCATS), 2011)
# The campaign covered roughly 310,000 compounds. About 18,000 (5.8%) were called active. Inconclusive results, whose numbers are uncertain, are shown with a selection of clear calls. Calls come from the whole dose curve; as a rule, active = well fitted inhibition curve with a large enough effect; inconclusive = small, poorly fitted or top-dose-only effect, or another doubt; inactive = no such curve, though single readings can be large or run the other way. Potencies of inconclusive entries are left out as doubtful fits.
# Experiment: Primary qHTS for delayed death inhibitors of the malarial parasite plastid, 48 hour incubation
# Conditions: P. falciparum luciferase growth in erythrocytes; series mostly up to 28.7 µM
# Method in brief: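 Read-out is firefly luciferase luminescence from an integrated reporter in P. falciparum, so falling signal marks reduced parasite growth. Infected erythrocytes were at 2% hematocrit and 0.1% parasitemia (final) in Albumax-supplemented RPMI 1640.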
# Potency is the fitted concentration of half-maximal effect; tags give direction and shape of the fitted curve.
row,SMILES,Potency
1,Cc1nc2nc(SCC(=O)c3ccccc3)[nH]c2cc1Br,"inconclusive [inhibitor, single point]"
2,CCC(C)NC(=O)CN(c1ccc(OC)cc1)S(=O)(=O)c1ccc(NC(C)=O)cc1 (stereo unspecified),"inconclusive [inhibitor, partial curve]"
3,CCOC(=O)c1c(S(=O)(=O)NCC(=O)N2CCN(c3ccccc3)CC2)c(C)n(C)c1C,inactive
4,Cc1ccccc1N(CC(=O)NCCSCc1ccccc1)S(C)(=O)=O,inactive
5,Nc1nc(SCc2ccc([N+](=O)[O-])cc2)nc2nc3c(cc12)CCCC3,"inconclusive [inhibitor, single point]"
6,COc1cccc(C(=O)NCC2CCN(c3ccc(S(=O)(=O)N4CCOCC4)cc3)CC2)c1,active: 11.7 µM
7,O=C(Nc1ccc(N=Nc2ccccc2)cc1)c1cccc(Cl)c1,inactive
8,COc1ccccc1N1CN(Cc2ccccc2)CNC1=S,"inconclusive [inhibitor, single point]"
9,COc1ccccc1NC(=O)Cc1noc(CSc2nnc(C)n2C)n1,"inconclusive [inhibitor, partial curve, poor fit]"
10,Cc1cc(Br)cc(C)c1OCCCCN(C)C,"inconclusive [inhibitor, partial curve, poor fit]"
11,CCOc1ccc2nc(N3CCCC(C(=O)NCC4CCCO4)C3)sc2c1 (stereo unspecified),inactive
12,CCOC(=O)C1=C(N)Oc2c(oc(CO)cc2=O)C1c1ccc(Cl)cc1 (stereo unspecified),"inconclusive [inhibitor, partial curve, poor fit]"
13,COCCNC(=O)C(OC(=O)CC1Sc2ccccc2NC1=O)c1ccccc1 (stereo unspecified),"inconclusive [inhibitor, partial curve]"
14,N#Cc1nc(-c2cccs2)oc1N1CCOCC1,"inconclusive [inhibitor, single point]"
15,COc1ccc(CC(=O)n2nc(-c3ccc(Cl)cc3)nc2NCc2ccco2)cc1,inactive
16,COc1ccc(N2CCSC2C(=O)NN)cc1 (stereo unspecified),inactive
17,CC1CC1C(=O)N(CCC1=CCCCC1)c1c(N)n(Cc2ccccc2)c(=O)[nH]c1=O (stereo unspecified),"inconclusive [inhibitor, single point]"
18,COc1ccccc1-n1ccnc(SCC(=O)NCc2ccccc2Cl)c1=O,"inconclusive [inhibitor, partial curve, poor fit]"
19,O=C(NCc1ccccn1)C1CC(c2ccc(Cl)c(Cl)c2)=NO1 (stereo unspecified),inactive
20,O=C(Nc1ccccc1Br)c1ccccc1-c1ccccc1,inactive
21,COc1ccc(CCN(Cc2nc3ccccc3c(=O)[nH]2)C(=O)C2CC2)cc1,"inconclusive [inhibitor, partial curve]"
